Drawing on PubChem BioAssay (NCI), this text covers GI50 and TGI for two compounds.

This assay has as its system NCI-H322M lung. The assay can be described thus: inhibition of tumour cell growth, NCI panel, 48 h.

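Cells were grown in 96-well plates and exposed to each compound for 48 hours at five concentrations; endpoints were interpolated linearly between bracketing concentrations, or set to the highest concentration if not reached. The concentration for 50% growth inhibition is given as GI50. At the TGI there is no net growth.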 Peptide text beside a SMILES is read from it.

As to `CC[C@@](C)(NC(=O)C(C)(C)NC(=O)[C@@H](NC(=O)[C@@H]1CCCN1C(=O)C(C)(C)NC(=O)[C@H](CC(C)C)NC(=O)CNC(=O)C(C)(C)NC(=O)[C@@H](NC(=O)C(C)(C)NC(=O)[C@H](CCC(N)=O)NC(=O)[C@H](C)NC(=O)C(C)(C)NC(=O)[C@H](C)NC(=O)C(C)(C)NC(=O)[C@@H]1CCCN1C(=O)C(C)(C)NC(C)=O)C(C)C)C(C)C)C(=O)N[C@@H](CCC(N)=O)C(=O)N[C@@H](CCC(N)=O)C(=O)N[C@H](CO)Cc1ccccc1` (HELM PEPTIDE1{[ac].[Aib].P.[Aib].A.[Aib].A.Q.[Aib].V.[Aib].G.L.[Aib].P.V.[Aib].[CC[C@@](C)(N[*:1])C(=O)[*:2]].Q.Q.[OC[C@H](Cc1ccccc1)N[*:1]]}$$$$V2.0), the GI50 is 3.21 µM and the TGI was over 4.25 µM.
Regarding `COc1ccc2c(C3=C(c4cn(C)c5ccccc45)C(=O)NC3=O)coc2c1`, the GI50 is 1.73 µM and the TGI amounted to 61.3 µM.
